# Residue numbers refer to the chain shown, from its start. Numbers in names are those of the source. Where two headings read alike, the source gives them in different places. Results are given in words; binding and its absence hold for the method and conditions named. For some of these results: Binding seen in cells or lysates may run through a third protein. Some results given as binding are weak or reduced against the parent protein; the word gives no strength. Tags and fused reporters may be left off the sequences shown.
# By UniProt entry, the sequences of proteins in these tests, tags left out.
# UniProt P16649: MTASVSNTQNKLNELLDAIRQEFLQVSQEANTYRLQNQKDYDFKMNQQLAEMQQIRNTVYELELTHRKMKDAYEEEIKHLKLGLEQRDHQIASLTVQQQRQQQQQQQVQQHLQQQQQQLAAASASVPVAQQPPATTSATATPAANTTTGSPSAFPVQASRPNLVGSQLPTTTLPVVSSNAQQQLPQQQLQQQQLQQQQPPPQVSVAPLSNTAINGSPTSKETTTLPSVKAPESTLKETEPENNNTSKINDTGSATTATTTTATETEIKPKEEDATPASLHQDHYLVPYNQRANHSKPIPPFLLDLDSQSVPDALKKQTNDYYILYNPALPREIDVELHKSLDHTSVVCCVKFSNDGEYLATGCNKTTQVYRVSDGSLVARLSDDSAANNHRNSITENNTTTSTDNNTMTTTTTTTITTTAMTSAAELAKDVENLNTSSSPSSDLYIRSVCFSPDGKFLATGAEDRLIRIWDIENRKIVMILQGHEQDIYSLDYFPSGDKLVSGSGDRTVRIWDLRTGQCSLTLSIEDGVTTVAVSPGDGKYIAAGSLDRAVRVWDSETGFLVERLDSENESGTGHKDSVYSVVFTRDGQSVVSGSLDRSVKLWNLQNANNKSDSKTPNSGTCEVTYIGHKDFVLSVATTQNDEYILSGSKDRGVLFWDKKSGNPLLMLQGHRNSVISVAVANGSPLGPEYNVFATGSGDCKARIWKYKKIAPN
# T1: GST-Fkh1 (full-length fusion protein, 1–484) (S. cerevisiae) (UniProt P40466)
# T1 sequence: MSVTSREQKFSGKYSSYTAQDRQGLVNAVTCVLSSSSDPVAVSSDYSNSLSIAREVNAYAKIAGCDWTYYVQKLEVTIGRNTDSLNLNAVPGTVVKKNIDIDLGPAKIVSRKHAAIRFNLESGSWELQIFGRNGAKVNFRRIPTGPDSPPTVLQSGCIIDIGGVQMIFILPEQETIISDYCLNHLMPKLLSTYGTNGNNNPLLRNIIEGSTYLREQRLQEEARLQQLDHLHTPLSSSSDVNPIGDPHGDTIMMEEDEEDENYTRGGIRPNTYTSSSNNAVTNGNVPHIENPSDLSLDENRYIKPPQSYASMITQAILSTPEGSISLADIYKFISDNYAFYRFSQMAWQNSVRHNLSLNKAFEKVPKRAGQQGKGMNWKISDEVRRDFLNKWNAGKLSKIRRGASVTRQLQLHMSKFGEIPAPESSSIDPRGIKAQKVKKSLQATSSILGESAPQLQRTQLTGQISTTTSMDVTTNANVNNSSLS
# T2: GST-Fkh1_(51–125) (S. cerevisiae) (UniProt P40466)
# T2 sequence: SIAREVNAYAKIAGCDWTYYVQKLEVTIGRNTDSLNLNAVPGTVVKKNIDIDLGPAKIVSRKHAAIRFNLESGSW
# T3: GST-Fkh1 (aa 81–160) (S. cerevisiae) (UniProt P40466)
# T3 sequence: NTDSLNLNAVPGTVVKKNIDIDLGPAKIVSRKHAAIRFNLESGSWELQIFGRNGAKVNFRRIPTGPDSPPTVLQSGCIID
# T4: GST-Fkh1 (aa 1–125) (S. cerevisiae) (UniProt P40466)
# T4 sequence: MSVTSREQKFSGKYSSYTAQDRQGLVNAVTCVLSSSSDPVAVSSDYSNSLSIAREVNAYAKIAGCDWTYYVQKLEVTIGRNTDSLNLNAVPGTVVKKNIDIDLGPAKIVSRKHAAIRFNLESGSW
# T5: GST-Fkh1 (aa 126–240) (S. cerevisiae) (UniProt P40466)
# T5 sequence: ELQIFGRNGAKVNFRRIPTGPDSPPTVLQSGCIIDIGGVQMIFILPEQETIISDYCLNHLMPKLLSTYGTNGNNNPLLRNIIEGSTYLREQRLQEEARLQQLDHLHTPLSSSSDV
# T6: GST-Fkh1_(51–125)L74A (S. cerevisiae) (UniProt P40466)
# T6 sequence: T2 sequence with L24A
# T7: GST-Fkh1_(51–125)I78A (S. cerevisiae) (UniProt P40466)
# T7 sequence: T2 sequence with I28A
# T8: BD-Sin3_(1–300) (S. cerevisiae) (UniProt P22579)
# T8 sequence: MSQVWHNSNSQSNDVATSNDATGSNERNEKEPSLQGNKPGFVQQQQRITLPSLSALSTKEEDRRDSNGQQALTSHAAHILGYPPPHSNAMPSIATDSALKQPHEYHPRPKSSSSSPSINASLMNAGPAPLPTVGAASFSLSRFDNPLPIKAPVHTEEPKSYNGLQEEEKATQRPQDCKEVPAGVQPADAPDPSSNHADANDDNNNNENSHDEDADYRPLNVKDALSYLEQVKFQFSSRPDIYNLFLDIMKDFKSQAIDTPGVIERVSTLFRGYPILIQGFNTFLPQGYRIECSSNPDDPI
# B1: HA-tagged Sin3 (aa 1–300), comprising PAH1 (domain or fragment, UniProt P22579 1-300)
# chain: T8 sequence
# B2: AD-Fkh1_(1–125) (domain or fragment, UniProt P40466 1-125)
# chain: T4 sequence
# B3: AD-Fkh1_(126–240) (domain or fragment, UniProt P40466 126-240)
# chain: T5 sequence
# B4: AD-Fkh1_(81–160) (domain or fragment, UniProt P40466 81-160)
# chain: T3 sequence
# B5: AD-Fkh1_(51–125) (domain or fragment, UniProt P40466 51-125)
# chain: T2 sequence
# B6: AD-Fkh1_(51–125 L74A) (domain or fragment, UniProt P40466 51-125)
# chain: T2 sequence with L24A
# B7: AD-Fkh1_(51–125 I78A) (domain or fragment, UniProt P40466 51-125)
# chain: T2 sequence with I28A
# B8: HA-tagged Sin3 (aa 601–950) (domain or fragment, UniProt P22579 601-950)
# chain: TSLTEQYAPSSIQHQQQHPQSISPIANTQYGDIPVRPEIDLDPSIVPVVPEPTEPIENNISLNEEVTFFEKAKRYIGNKHLYTEFLKILNLYSQDILDLDDLVEKVDFYLGSNKELFTWFKNFVGYQEKTKCIENIVHEKHRLDLDLCEAFGPSYKRLPKSDTFMPCSGRDDMCWEVLNDEWVGHPVWASEDSGFIAHRKNQYEETLFKIEEERHEYDFYIESNLRTIQCLETIVNKIENMTENEKANFKLPPGLGHTSMTIYKKVIRKVYDKERGFEIIDALHEHPAVTAPVVLKRLKQKDEEWRRAQREWNKVWRELEQKVFFKSLDHLGLTFKQADKKLLTTKQLIS
# B9: HA-tagged Sin3 (aa 801–1100) (domain or fragment, UniProt P22579 801-1100)
# chain: NQYEETLFKIEEERHEYDFYIESNLRTIQCLETIVNKIENMTENEKANFKLPPGLGHTSMTIYKKVIRKVYDKERGFEIIDALHEHPAVTAPVVLKRLKQKDEEWRRAQREWNKVWRELEQKVFFKSLDHLGLTFKQADKKLLTTKQLISEISSIKVDQTNKKIHWLTPKPKSQLDFDFPDKNIFYDILCLADTFITHTTAYSNPDKERLKDLLKYFISLFFSISFEKIEESLYSHKQNVSESSGSDDGSSIASRKRPYQQEMSLLDILHRSRYQKLKRSNDEDGKVPQLSEPPEEEPNT
# B10: HA-tagged Sin3 (aa 1101–1536) (domain or fragment, UniProt P22579 1101-1536)
# chain: IEEEELIDEEAKNPWLTGNLVEEANSQGIIQNRSIFNLFANTNIYIFFRHWTTIYERLLEIKQMNERVTKEINTRSTVTFAKDLDLLSSQLSEMGLDFVGEDAYKQVLRLSRRLINGDLEHQWFEESLRQAYNNKAFKLYTIDKVTQSLVKHAHTLMTDAKTAEIMALFVKDRNASTTSAKDQIIYRLQVRSHMSNTENMFRIEFDKRTLHVSIQYIALDDLTLKEPKADEDKWKYYVTSYALPHPTEGIPHEKLKIPFLERLIEFGQDIDGTEVDEEFSPEGISVSTLKIKIQPITYQLHIENGSYDVFTRKATNKYPTIANDNTQKGMVSQKKELISKFLDCAVGLRNNLDEAQKLSMQKKWENLKDSIAKTSAGNQGIESETEKGKITKQEQSDNLDSSTASVLPASITTVPQDDNIETTGNTESSDKGAKIQ
# B11: HA3-Cyc8 (aa 1–398, TPR-containing domain) (domain or fragment, UniProt P14922 1-398)
# chain: MNPGGEQTIMEQPAQQQQQQQQQQQQQQQQAAVPQQPLDPLTQSTAETWLSIASLAETLGDGDRAAMAYDATLQFNPSSAKALTSLAHLYRSRDMFQRAAELYERALLVNPELSDVWATLGHCYLMLDDLQRAYNAYQQALYHLSNPNVPKLWHGIGILYDRYGSLDYAEEAFAKVLELDPHFEKANEIYFRLGIIYKHQGKWSQALECFRYILPQPPAPLQEWDIWFQLGSVLESMGEWQGAKEAYEHVLAQNQHHAKVLQQLGCLYGMSNVQFYDPQKALDYLLKSLEADPSDATTWYHLGRVHMIRTDYTAAYDAFQQAVNRDSRNPIFWCSIGVLYYQISQYRDALDAYTRAIRLNPYISEVWYDLGTLYETCNNQLSDALDAYKQAARLDVNN
# Assays:
# [1] = biological target: T1, GST-Fkh1 (full-length fusion protein, 1–484) (S. cerevisiae); test: pull-down; GST fusion from E. coli immobilized on GSH sepharose, incubated with pre-cleared bacterial (E. coli) total protein extract containing the HA fusion; eluted with 10 mM free GSH; anti-HA blot; only the target purified
# [2] = biological target: T2, GST-Fkh1_(51–125) (S. cerevisiae); test: pull-down; GST fusion from E. coli immobilized on GSH sepharose, incubated with pre-cleared total protein extract from S. cerevisiae containing the HA fusion; eluted with 10 mM free GSH; anti-HA blot; only the target purified
# [3] = biological target: T3, GST-Fkh1 (aa 81–160) (S. cerevisiae); test: as above
# [4] = biological target: T1, GST-Fkh1 (full-length fusion protein, 1–484) (S. cerevisiae); test: as above
# [5] = biological target: T4, GST-Fkh1 (aa 1–125) (S. cerevisiae); test: as above
# [6] = biological target: T5, GST-Fkh1 (aa 126–240) (S. cerevisiae); test: as above
# [7] = biological target: T6, GST-Fkh1_(51–125)L74A (S. cerevisiae); test: as above
# [8] = biological target: T7, GST-Fkh1_(51–125)I78A (S. cerevisiae); test: as above
# [9] = biological target: T1, GST-Fkh1 (full-length fusion protein, 1–484) (S. cerevisiae); test: as above; remark: listed apart in the source
# [10] = biological target: T4, GST-Fkh1 (aa 1–125) (S. cerevisiae); test: as above; remark: listed apart in the source
# [11] = biological target: T5, GST-Fkh1 (aa 126–240) (S. cerevisiae); test: as above; remark: listed apart in the source
# [12] = biological target: BD-Sin3_(301–888) (S. cerevisiae) (UniProt P22579); test: two-hybrid; strain PJ69-4A; Gal4 BD-Sin3 (pGBD-C1) and Gal4 AD-Fkh1 (pGAD-C1) fusions; growth on medium lacking adenine (GAL2-ADE2 reporter) after 48 h
# [13] = biological target: T8, BD-Sin3_(1–300) (S. cerevisiae); test: as above
molecule,measurement,setting,value
HA3-Tup1 (full-length) (from UniProt P16649 1-713),binding,[1],binds
"HA-tagged Sin3 (aa 301–600), comprising PAH2 (from UniProt P22579 301-600) (domain or fragment)",binding,[2],binds
same,binding,[3],binds
same,binding,[4],binds
same,binding,[5],binds
same,binding,[6],binds
"HA3-Sin3 (full-length), expressed in S. cerevisiae (from UniProt P22579 1-1536)",binding,[4],binds
same,binding,[7],no binding
same,binding,[8],no binding
"HA3-Sin3 (full-length), expressed in E. coli (from UniProt P22579 1-1536)",binding,[1],binds
B1,binding,[9],binds
same,binding,[10],binds
same,binding,[11],binds
B2,binding,[12],binds
same,binding,[13],binds
B3,binding,[12],binds
same,binding,[13],binds
B4,binding,[12],binds
B5,binding,[12],binds
B6,binding,[12],no binding
B7,binding,[12],no binding
B8,binding,[9],no binding
B9,binding,[9],no binding
B10,binding,[9],no binding
B11,binding,[1],no binding

# From article PMC8139909
